Changes are numbered by the printed parent chain; changes in the protein carry UniProt numbers. The list shows a part of the results.
T1: RBFOX1 RRM (Homo sapiens, UniProt Q9NWB1 109-208)
T1 sequence: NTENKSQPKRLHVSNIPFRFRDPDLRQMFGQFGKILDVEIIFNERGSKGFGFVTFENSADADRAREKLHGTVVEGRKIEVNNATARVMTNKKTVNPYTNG

B1: GAAAACG (DNA:RNA)
RNA: GGGAGACCGGAAUUCAGAUUGUCCGAAAACGUUAAAUCCCGUCGUAGCCACCA
DNA 1: CAATCTGAATTCCGGTCTCCC
DNA 2: TGGTGGCTACGACGGGATT
B2: UAGCUUG (DNA:RNA)
RNA: B1 RNA with G25U, A27G, A28C, A29U, C30U
DNA 1: CAATCTGAATTCCGGTCTCCC
DNA 2: TGGTGGCTACGACGGGATT
B3: GCCGCAC (DNA:RNA)
RNA: B1 RNA with A26C, A27C, A28G, A29C, C30A, G31C
DNA 1: CAATCTGAATTCCGGTCTCCC
DNA 2: TGGTGGCTACGACGGGATT
B4: CUGUAAC (DNA:RNA)
RNA: B1 RNA with G25C, A26U, A27G, A28U, C30A, G31C
DNA 1: CAATCTGAATTCCGGTCTCCC
DNA 2: TGGTGGCTACGACGGGATT
B5: CUGCCCA (DNA:RNA)
RNA: B1 RNA with G25C, A26U, A27G, A28C, A29C, G31A
DNA 1: CAATCTGAATTCCGGTCTCCC
DNA 2: TGGTGGCTACGACGGGATT
B6: CGUGUAU (DNA:RNA)
RNA: GGGAGACCGGAAUUCAGAUUGUCCCGUGUAUUUAAAUCCCGUCGUAGCCACCA
DNA 1: CAATCTGAATTCCGGTCTCCC
DNA 2: TGGTGGCTACGACGGGATT
B7: ACUACGC (DNA:RNA)
RNA: B6 RNA with C25A, G26C, G28A, U29C, A30G, U31C
DNA 1: CAATCTGAATTCCGGTCTCCC
DNA 2: TGGTGGCTACGACGGGATT
B8: GAAUCAG (DNA:RNA)
RNA: B1 RNA with A28U, A29C, C30A
DNA 1: CAATCTGAATTCCGGTCTCCC
DNA 2: TGGTGGCTACGACGGGATT
B9: CAGGGGA (DNA:RNA)
RNA: B6 RNA with G26A, U27G, U29G, A30G, U31A
DNA 1: CAATCTGAATTCCGGTCTCCC
DNA 2: TGGTGGCTACGACGGGATT
B10: UCAUGCG (DNA:RNA)
RNA: B1 RNA with G25U, A26C, A28U, A29G
DNA 1: CAATCTGAATTCCGGTCTCCC
DNA 2: TGGTGGCTACGACGGGATT
B11: AUCCAGU (DNA:RNA)
RNA: B6 RNA with C25A, G26U, U27C, G28C, U29A, A30G
DNA 1: CAATCTGAATTCCGGTCTCCC
DNA 2: TGGTGGCTACGACGGGATT
B12: AGUGGAA (DNA:RNA)
RNA: B6 RNA with C25A, U29G, U31A
DNA 1: CAATCTGAATTCCGGTCTCCC
DNA 2: TGGTGGCTACGACGGGATT
B13: AUUCACG (DNA:RNA)
RNA: B1 RNA with G25A, A26U, A27U, A28C
DNA 1: CAATCTGAATTCCGGTCTCCC
DNA 2: TGGTGGCTACGACGGGATT
B14: CUAAGAG (DNA:RNA)
RNA: B1 RNA with G25C, A26U, A29G, C30A
DNA 1: CAATCTGAATTCCGGTCTCCC
DNA 2: TGGTGGCTACGACGGGATT
B15: UGAAACC (DNA:RNA)
RNA: B1 RNA with G25U, A26G, G31C
DNA 1: CAATCTGAATTCCGGTCTCCC
DNA 2: TGGTGGCTACGACGGGATT
B16: UGUGUUA (DNA:RNA)
RNA: B6 RNA with C25U, A30U, U31A
DNA 1: CAATCTGAATTCCGGTCTCCC
DNA 2: TGGTGGCTACGACGGGATT
B17: UCACACG (DNA:RNA)
RNA: B1 RNA with G25U, A26C, A28C
DNA 1: CAATCTGAATTCCGGTCTCCC
DNA 2: TGGTGGCTACGACGGGATT
B18: CUCUCUU (DNA:RNA)
RNA: B6 RNA with G26U, U27C, G28U, U29C, A30U
DNA 1: CAATCTGAATTCCGGTCTCCC
DNA 2: TGGTGGCTACGACGGGATT
B19: AUAUCUC (DNA:RNA)
RNA: B1 RNA with G25A, A26U, A28U, A29C, C30U, G31C
DNA 1: CAATCTGAATTCCGGTCTCCC
DNA 2: TGGTGGCTACGACGGGATT
B20: CGUUUAA (DNA:RNA)
RNA: B6 RNA with G28U, U31A
DNA 1: CAATCTGAATTCCGGTCTCCC
DNA 2: TGGTGGCTACGACGGGATT
B21: UUGAUUG (DNA:RNA)
RNA: B1 RNA with G25U, A26U, A27G, A29U, C30U
DNA 1: CAATCTGAATTCCGGTCTCCC
DNA 2: TGGTGGCTACGACGGGATT
B22: UGACCAA (DNA:RNA)
RNA: B6 RNA with C25U, U27A, G28C, U29C, U31A
DNA 1: CAATCTGAATTCCGGTCTCCC
DNA 2: TGGTGGCTACGACGGGATT
B23: AUGUGAC (DNA:RNA)
RNA: B6 RNA with C25A, G26U, U27G, G28U, U29G, U31C
DNA 1: CAATCTGAATTCCGGTCTCCC
DNA 2: TGGTGGCTACGACGGGATT
B24: AUGUCCU (DNA:RNA)
RNA: B6 RNA with C25A, G26U, U27G, G28U, U29C, A30C
DNA 1: CAATCTGAATTCCGGTCTCCC
DNA 2: TGGTGGCTACGACGGGATT
B25: CCACUGU (DNA:RNA)
RNA: B6 RNA with G26C, U27A, G28C, A30G
DNA 1: CAATCTGAATTCCGGTCTCCC
DNA 2: TGGTGGCTACGACGGGATT
B26: UACUCUC (DNA:RNA)
RNA: B1 RNA with G25U, A27C, A28U, A29C, C30U, G31C
DNA 1: CAATCTGAATTCCGGTCTCCC
DNA 2: TGGTGGCTACGACGGGATT
B27: UGGCUUU (DNA:RNA)
RNA: B6 RNA with C25U, U27G, G28C, A30U
DNA 1: CAATCTGAATTCCGGTCTCCC
DNA 2: TGGTGGCTACGACGGGATT
B28: CCACACU (DNA:RNA)
RNA: B1 RNA with G25C, A26C, A28C, G31U
DNA 1: CAATCTGAATTCCGGTCTCCC
DNA 2: TGGTGGCTACGACGGGATT
B29: UCCUCGA (DNA:RNA)
RNA: GGGAGACCGGAAUUCAGAUUGUCCUCCUCGAUUAAAUCCCGUCGUAGCCACCA
DNA 1: CAATCTGAATTCCGGTCTCCC
DNA 2: TGGTGGCTACGACGGGATT
B30: UUAUAAG (DNA:RNA)
RNA: B1 RNA with G25U, A26U, A28U, C30A
DNA 1: CAATCTGAATTCCGGTCTCCC
DNA 2: TGGTGGCTACGACGGGATT
B31: GGGAACC (DNA:RNA)
RNA: B1 RNA with A26G, A27G, G31C
DNA 1: CAATCTGAATTCCGGTCTCCC
DNA 2: TGGTGGCTACGACGGGATT

Target: T1, RBFOX1 RRM
Assay: EMSA; HiTS-Eq, 1 nM pool, 10 min; buffer printed only for the single-RNA assays: 10 mM Tris pH 7.5, 150 mM NaCl, 3.4 mM EDTA, 0.001% NP-40, 30 C
Details: tags: His6 N-terminal (pET28a); label: 5' 32P
How it was run: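 These values rest on relative association constants, computed from read-count changes of each RNA species versus the control reaction and normalised to the cognate motif. Reads came from free RNA recovered by 8% native PAGE after purified RbFox RRM (wild type or mutant) at increasing concentrations was equilibrated for 10 min in 50 µL with 1 nM of a 5′-radiolabelled pool with 7 randomized nucleotides and DNA-annealed flanks.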

Binder	binding signal
B1	0.0047 KA relative to UGCAUGU
B2	0.0445 KA relative to UGCAUGU
B3	0.0122 KA relative to UGCAUGU
B4	0.0121 KA relative to UGCAUGU
B5	0.00355 KA relative to UGCAUGU
B6	0.00724 KA relative to UGCAUGU
B7	0.00303 KA relative to UGCAUGU
B8	0.00941 KA relative to UGCAUGU
B9	0.00636 KA relative to UGCAUGU
B10	0.0151 KA relative to UGCAUGU
B11	0.000423 KA relative to UGCAUGU
B12	0.00598 KA relative to UGCAUGU
B13	0.00342 KA relative to UGCAUGU
B14	0.00974 KA relative to UGCAUGU
B15	0.00628 KA relative to UGCAUGU
B16	0.0157 KA relative to UGCAUGU

Binder	binding signal
B17	0.00339 KA relative to UGCAUGU
B18	0.00585 KA relative to UGCAUGU
B19	0.00182 KA relative to UGCAUGU
B20	0.006 KA relative to UGCAUGU
B21	0.0356 KA relative to UGCAUGU
B22	0.00452 KA relative to UGCAUGU
B23	0.00423 KA relative to UGCAUGU
B24	0.00241 KA relative to UGCAUGU
B25	0.00469 KA relative to UGCAUGU
B26	0.00468 KA relative to UGCAUGU
B27	0.0207 KA relative to UGCAUGU
B28	0.00434 KA relative to UGCAUGU
B29	0.00976 KA relative to UGCAUGU
B30	0.00929 KA relative to UGCAUGU
B31	0.0108 KA relative to UGCAUGU
